This note sets out measurements from US20210032308A1 (published 2021).

This assay concerns the target T1, recombinant human CD2 (biotinylated) (human, UniProt P06729 25-209, biotinylated (site not stated)).
T1 construct: also called hCD2-biotin; human recombinant CD2
T1 sequence: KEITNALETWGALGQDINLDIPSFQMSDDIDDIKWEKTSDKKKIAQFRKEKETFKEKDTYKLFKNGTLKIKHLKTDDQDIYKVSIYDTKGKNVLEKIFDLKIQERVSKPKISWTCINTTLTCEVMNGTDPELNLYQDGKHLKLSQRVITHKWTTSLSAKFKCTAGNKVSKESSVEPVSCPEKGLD
Kind of assay: SPR (FIG. 7C).

B1: M1-d3 Fc fusion protein (Fc fusion)
chain: FSQQIYGVVYGNVTFHVPSNVPLKEVLWKKQKDKVVEFENSEVRAFSSFKNRVYLDTVSGSLTIYNLTSSDEDEYEMESPNITDTFKFFLYVLESLPS[human IgG1 Fc not shown]
Take B1: the binding result is reported as “binds”.
